Experimental data published in patent US20220389066A1, “POLYPEPTIDES” (Affibody AB, priority 2019, published 2022).

T1: HMGB1(red) (Rattus norvegicus, UniProt P63159)
T1 construct: purchased HMGBiotech Srl, Milano, Italy
T1 sequence (P63159 2-215): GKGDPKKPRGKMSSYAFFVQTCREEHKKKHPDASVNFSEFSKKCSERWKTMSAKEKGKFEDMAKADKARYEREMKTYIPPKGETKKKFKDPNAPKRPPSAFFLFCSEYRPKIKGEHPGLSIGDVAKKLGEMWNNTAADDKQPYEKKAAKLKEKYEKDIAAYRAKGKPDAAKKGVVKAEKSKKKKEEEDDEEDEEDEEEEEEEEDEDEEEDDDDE

T2: HMGB1(disulfide) (Rattus norvegicus, UniProt P63159)
T2 construct: purchased HMGBiotech Srl, Milano, Italy
T2 sequence (P63159 1-215): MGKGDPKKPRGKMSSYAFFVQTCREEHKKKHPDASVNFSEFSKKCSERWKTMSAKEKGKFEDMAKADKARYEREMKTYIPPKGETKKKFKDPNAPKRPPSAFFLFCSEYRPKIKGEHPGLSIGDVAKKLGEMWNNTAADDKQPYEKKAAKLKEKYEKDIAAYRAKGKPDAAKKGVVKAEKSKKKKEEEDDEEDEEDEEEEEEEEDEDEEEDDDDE

T3: HMGB1(red) (Rattus norvegicus, UniProt P63159)
T3 construct: purchased HMGBiotech Srl, Milano, Italy
T3 sequence (P63159 1-215): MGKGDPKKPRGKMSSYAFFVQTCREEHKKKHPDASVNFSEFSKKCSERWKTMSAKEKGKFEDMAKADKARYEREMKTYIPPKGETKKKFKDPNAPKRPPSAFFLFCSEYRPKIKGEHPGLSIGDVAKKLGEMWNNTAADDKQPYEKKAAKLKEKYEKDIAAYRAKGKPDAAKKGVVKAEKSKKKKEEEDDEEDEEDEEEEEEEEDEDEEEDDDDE

T4: boxA(disulfide) (Homo sapiens, UniProt P09429)
T4 construct: purchased HMGBiotech Srl, Milano, Italy
T4 sequence (P09429 1-89): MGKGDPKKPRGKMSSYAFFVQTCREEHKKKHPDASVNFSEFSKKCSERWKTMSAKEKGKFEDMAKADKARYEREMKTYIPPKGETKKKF


What was measured:
HMGB1(red) [1] = target: T1, HMGB1(red); assay: In vitro cell migration assay, mouse 3T3 fibroblasts in modified Boyden chambers; type: cell-based; conditions: 0.2 nM HMGB1, polypeptide 0.1, 0.3, 1 nM, lowest detection limit 0.1 nM, read-out: IC50 (nM), inhibiting HMGB1 induced cell migration
Experimental: In vitro cell migration assay: Mouse 3T3 fibroblast cells were used to assess the ability of His6-tagged Z variants to inhibit migration of cells in response to HMGB1 in modified Boyden Chambers (Neuroprobe Inc.). Mouse 3T3 fibroblasts were grown in Dulbecco's Modified Eagle Medium (DMEM, Gibco) with 10% fetal bovine serum (FBS, Gibco), 1% L-glutamine and antibiotics (Lonza). Prior to use, cells were centrifuged and the pellet was resuspended in DMEM (without FBS) without further washing. Polycarbonate filters (Neuroprobe Inc.; #PFA8) with 8 μm pores were coated with human fibronectin (Roche). Serum-free DMEM (negative control), DMEM containing 1 nM HMGB1(red) (positive control), and DMEM containing 1 nM HMGB1(red) plus Z variants ZH 01 (SEQ ID NO:1) and ZH 31 (SEQ ID NO:31) at a concentration of 10 or 100 ng/ml, were placed in the lower wells. A control polypeptide, Z04726 (SEQ ID NO:54), binding an irrelevant target, was used as negative control. boxA(red) (SEQ ID NO:51), a known competitor of HMGB1, was used at 1 nM concentration as positive control for inhibition of HMGB1 induced cell migration. Fibronectin-coated filters were placed so as to separate the lower and the upper wells, and 50000 3T3 cells were placed in the upper wells. […] The cells on the lower side of the filter were counted with a Leica DM LS2 microscope at 400× magnification. […]

HMGB1(disulfide) [2] = target: T2, HMGB1(disulfide); assay: Attana A200 biosensor binding analysis, HMGB1(disulfide); conditions: relevant kd (the most represented in %); non-reducing; captured on HSA; 1:1 or 1:2 model
Experimental: (§1) Binding analysis: The Attana A200® biosensor was used to characterize interactions between the dimeric polypeptides (SEQ ID NO:38-48) and HMGB1(red) under reducing conditions and/or HMGB1(disulfide) under non-reducing conditions. The monomeric ZA3812 (SEQ ID NO:35) was included for comparison. The experiment was performed as a capture assay, in which HSA was immobilized on Attana's sensor chip Low-NonSpecific-Binding (LNB). Immobilization was performed using amine coupling. The instrument has two sensor surfaces and HSA was immobilized on both surfaces. Around 110 Hz of HSA was stably immobilized on the surfaces.
(§2) In the kinetic experiment, HBS-EP+/−2 mM DTT was used as running buffer and the flow rate was 25 μl/min at 22° C. In each cycle, one polypeptide was tested against one concentration of HMGB1. […] The analyte HMGB1(reduced) was diluted in HBS-EP+2 mM DTT within a concentration range of 1.33 to 21.4 μg/ml, and the analyte HMGB1(disulfide) was diluted in HBS-EP buffer within a concentration range of 0.62 to 10 μg/ml. Both analytes were subsequently injected for 84 s over both channel A and B, where channel B was used as a blank surface for curve subtraction. Buffer injections were also made for surface subtractions. After dissociation, the surfaces were regenerated with a 30 s injection of 100 mM HCl followed by a 30 s injection of 20 mM NaOH. Data was collected by Attester Software and subsequently processed in the Evaluation Software. To calculate the kinetic parameters (ka and kd) and affinity constant (KD), the experimental data were fitted using a 1:1 or a 1:2 binding model.

HMGB1(red) [3] = target: T3, HMGB1(red); assay: Attana A200 biosensor binding analysis, HMGB1(red); conditions: relevant kd (the most represented in %); 2 mM DTT; captured on HSA; 1:1 or 1:2 model
Experimental: as §1, §2

GST-boxA(red) = target: T5, GST-boxA(red) (Homo sapiens, UniProt P09429); assay: Biacore kinetic analysis, Z-ABD captured on HSA, GST-boxA(red); type: binding; conditions: analyte GST-boxA(red); 2 mM DTT; 1:1 model
T5 construct: purchased HMGBiotech Srl, Milano, Italy
Experimental: (§3) Biacore kinetic and specificity analysis: Kinetic constants (ka and kd) and affinities (KD) for HMGB1(red), HMGB1(disulfide), boxA(disulfide) and GST-boxA(red) were determined for the A-box binding Z-ABD polypeptides ZA3812 (SEQ ID NO:35) and ZA3914 (SEQ ID NO:36) (see Example 2), as well as for the HMGB1(red) interaction with the B-box binding polypeptide ZA3975, using a Biacore 2000 instrument (GE Healthcare).
(§4) The experiment was performed as a capture assay, in which human serum albumin (HSA, Novozymes, cat. no. 230-005) was immobilized on the carboxylated dextran layer of one CM5 chip surface (GE Healthcare, cat. no. BR100012) to immobilization levels of approximately 3000 RU. The immobilization was performed using amine coupling chemistry according to the manufacturer's protocol and using HBS-EP (GE Healthcare, cat. no. BR100188) as running buffer. In a first set of experiments, Z-ABD polypeptides were analyzed under non-reducing conditions. One flow cell surface was activated and deactivated for use as blank during ligand and analyte injections. In the kinetic experiment, HBS-EP was used as running buffer and the flow rate was 30 μl/min. The ligand, i.e. the Z-ABD polypeptide, was diluted in HBS-EP buffer to a concentration of 30 nM and injected during 2 min.
(§5) In a second set of experiments, ZA3812 and ZA3914 were analyzed under reducing conditions where 2 mM DTT was included in the sample and running buffer. Analyses were performed as described above, except that HMGB1(red) and GST-boxA(red) were used as targets.
(§6) Kinetic constants were calculated from sensorgrams using the BiaEvaluation software 4.1 (GE Healthcare). The Langmuir 1:1 model was used for fitting of all data except for HMGB1(disulfide), where a model for heterogeneous ligand parallel reactions better represented the experimental data and bulk was set to zero. Double referencing was applied to all data prior to kinetic fit, i.e. responses obtained from a blank surface and from a blank cycle where buffer was injected instead of analyte were subtracted.

HMGB1(red) [4] = target: T3, HMGB1(red); assay: Biacore kinetic analysis, Z-ABD captured on HSA, HMGB1(red); type: binding; conditions: analyte HMGB1(red); reducing conditions (DTT); 1:1 model
Experimental: as §3, §4, §5
In a third experiment, ZA3975 was analyzed for binding to HMGB1(red) under reduced conditions (1.5 mM DTT included in the sample and running buffer). The ligand ZA3975 was diluted in HBS-EP buffer to a concentration of 100 nM and injected during 4 min. The analyte, HMGB1(red), was diluted in HBS-EP buffer to a concentration within the range of 8.3 to 675 nM and injected during 4 min, followed by dissociation in running buffer for 20 min. After dissociation, the surfaces were regenerated with three injections of 10 mM HCl.
as §6

HMGB1(disulfide) [5] = target: T2, HMGB1(disulfide); assay: Biacore kinetic analysis, Z-ABD captured on HSA, HMGB1(disulfide); type: binding; conditions: analyte HMGB1(disulfide); non-reducing; heterogeneous ligand parallel reactions model
Experimental: as §3, §4
(§7) The analyte, i.e. HMGB1(disulfide) or boxA(disulfide), was diluted in HBS-EP buffer within a concentration range of 2.5 to 640 nM and injected during 6 min, followed by dissociation in running buffer for 12 min. After dissociation, the surfaces were regenerated with one injection of 10 mM HCl.
as §6

boxA(disulfide) = target: T4, boxA(disulfide); assay: Biacore kinetic analysis, Z-ABD captured on HSA, boxA(disulfide); type: binding; conditions: analyte boxA(disulfide); non-reducing; 1:1 model
Experimental: as §3, §4, §7, §6

T5 sequence (P09429 with tags, fused parts or gaps): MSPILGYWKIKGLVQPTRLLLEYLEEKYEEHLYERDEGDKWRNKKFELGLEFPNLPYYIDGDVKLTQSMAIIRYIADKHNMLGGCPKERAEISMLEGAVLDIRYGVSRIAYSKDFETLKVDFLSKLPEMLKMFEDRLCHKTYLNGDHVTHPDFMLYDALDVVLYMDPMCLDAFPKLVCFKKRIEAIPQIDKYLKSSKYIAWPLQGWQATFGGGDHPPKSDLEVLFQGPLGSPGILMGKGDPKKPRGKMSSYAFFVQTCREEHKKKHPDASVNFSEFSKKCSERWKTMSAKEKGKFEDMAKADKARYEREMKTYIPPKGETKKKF

| IC50 (HMGB1(red) [1]) [nM] | kd HMGB1 (disulfide) (HMGB1(disulfide) [2]) [s⁻¹] | kd HMGB1 (red) (HMGB1(red) [3]) [s⁻¹] | ka1 (GST-boxA(red)) [M⁻¹ s⁻¹] | kd1 (GST-boxA(red)) [s⁻¹] | ka1 (HMGB1(red) [4]) [M⁻¹ s⁻¹] | kd1 (HMGB1(red) [4]) [s⁻¹] | ka1 (HMGB1(disulfide) [5]) [M⁻¹ s⁻¹] | ka2 (HMGB1(disulfide) [5]) [M⁻¹ s⁻¹] | kd1 (HMGB1(disulfide) [5]) [s⁻¹] | kd2 (HMGB1(disulfide) [5]) [s⁻¹] | ka1 (boxA(disulfide)) [M⁻¹ s⁻¹] | kd1 (boxA(disulfide)) [s⁻¹] | Molecule |
| --- | --- | --- | --- | --- | --- | --- | --- | --- | --- | --- | --- | --- | --- |
| 0.3 to 1 | 0.00062 | 0.013 |  |  |  |  |  |  |  |  |  |  | ZZA4053: homodimer of ZH27, format Z(boxA)-L1-Z(boxA)-ABD (protein, Engineered HMGB1 binding polypeptide, homodimer of ZH27, format Z(boxA)-L1-Z(boxA)-ABD) AEAKYAKEDWDAFWEIIWLPNLTDAQQRAFIYKLEDDPSQSSELLSEAKKLNDSQAPKGAPGGGGSGGGGSGGGGSTSAEAKYAKEDWDAFWEIIWLPNLTDAQQRAFIYKLEDDPSQSSELLSEAKKLNDSQAPKASGSLAEAKEAANAELDSYGVSDFYKRLIDKAKTVEGVEALKDAILAALP |
| 0.1 to 0.3 | 0.001 | 0.00055 |  |  |  |  |  |  |  |  |  |  | ZZA4010: heterodimer ZH01/ZH31, format Z(boxA)-L1-Z(boxB)-ABD (protein, Engineered HMGB1 binding polypeptide, heterodimer ZH01/ZH31, format Z(boxA)-L1-Z(boxB)-ABD) VDAKYAKEDWDAFWEIIWLPNLTDAQQRAFIYKLEDDPSQSSELLSEAKKLNDSQAPKGAPGGGGSGGGGSGGGGSTSVDAKYAKEAWLAEQEIWQLPNLTEAQFQAFILKLIDDPSQSSELLSEAKKLNDSQAPKASGSLAEAKEAANAELDSYGVSDFYKRLIDKAKTVEGVEALKDAILAALP |
|  | 0.00048 | 0.013 | 72000 | 7.6e-05 | 500000 | 0.0004 | 160000 | 13000 | 0.018 | 3.5e-05 | 150000 | 21000 | ZA3812: A-box binding Z-ABD polypeptide, ZH 27-ASGS-PP013 (protein, Engineered HMGB1 binding polypeptide) AEAKYAKEDWDAFWEIIWLPNLTDAQQRAFIYKLEDDPSQSSELLSEAKKLNDSQAPKASGSLAEAKEAANAELDSYGVSDFYKRLIDKAKTVEGVEALKDAILAALP |
